# From PubChem BioAssay AID504333 (National Center for Advancing Translational Sciences (NCATS), 2011)
# Several values for one entry are separate records, joined by “and”; a condition that tells them apart may be missing. Identical values can stand only once. Among all 360,000 compounds or so, about 16,000 (4.4%) were called active. Inconclusive results, whose numbers are uncertain, are shown with a selection of clear calls. The call rests on the fitted dose curve; in most records, active means well fitted inhibition curve with a large enough effect; inconclusive means small, poorly fitted or top-dose-only effect; inactive means no such curve, though single readings can be large or run the other way. A potency beside an inconclusive call is a rough fit, not a confirmed value.
# Molecular target: Bromodomain adjacent to zinc finger domain protein 2B (Homo sapiens) (UniProt Q9UIF8)
# Experiment: qHTS Assay for Inhibitors of BAZ2B; further: nearly all actives have a fitted effect of over 60% in size
# Conditions: AlphaScreen BAZ2B-H3K14Ac peptide displacement; series mostly up to 114 µM
# Procedure, shortened: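 Inhibition is scored as reduced AlphaScreen emission. The BAZ2B/b-H3(5-23)K14Ac complex (50 nM each) in PBS pH 7.4, 0.01% Tween-20 meets compound (up to 110 uM) for 30 min at RT before bead addition.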
# Potency means the concentration at half of the fitted maximal effect; tags describe the fitted curve by direction and shape.
# Sequence of UniProt Q9UIF8 (Q9UIF8 whole entry, looked up, the tested form may be a part): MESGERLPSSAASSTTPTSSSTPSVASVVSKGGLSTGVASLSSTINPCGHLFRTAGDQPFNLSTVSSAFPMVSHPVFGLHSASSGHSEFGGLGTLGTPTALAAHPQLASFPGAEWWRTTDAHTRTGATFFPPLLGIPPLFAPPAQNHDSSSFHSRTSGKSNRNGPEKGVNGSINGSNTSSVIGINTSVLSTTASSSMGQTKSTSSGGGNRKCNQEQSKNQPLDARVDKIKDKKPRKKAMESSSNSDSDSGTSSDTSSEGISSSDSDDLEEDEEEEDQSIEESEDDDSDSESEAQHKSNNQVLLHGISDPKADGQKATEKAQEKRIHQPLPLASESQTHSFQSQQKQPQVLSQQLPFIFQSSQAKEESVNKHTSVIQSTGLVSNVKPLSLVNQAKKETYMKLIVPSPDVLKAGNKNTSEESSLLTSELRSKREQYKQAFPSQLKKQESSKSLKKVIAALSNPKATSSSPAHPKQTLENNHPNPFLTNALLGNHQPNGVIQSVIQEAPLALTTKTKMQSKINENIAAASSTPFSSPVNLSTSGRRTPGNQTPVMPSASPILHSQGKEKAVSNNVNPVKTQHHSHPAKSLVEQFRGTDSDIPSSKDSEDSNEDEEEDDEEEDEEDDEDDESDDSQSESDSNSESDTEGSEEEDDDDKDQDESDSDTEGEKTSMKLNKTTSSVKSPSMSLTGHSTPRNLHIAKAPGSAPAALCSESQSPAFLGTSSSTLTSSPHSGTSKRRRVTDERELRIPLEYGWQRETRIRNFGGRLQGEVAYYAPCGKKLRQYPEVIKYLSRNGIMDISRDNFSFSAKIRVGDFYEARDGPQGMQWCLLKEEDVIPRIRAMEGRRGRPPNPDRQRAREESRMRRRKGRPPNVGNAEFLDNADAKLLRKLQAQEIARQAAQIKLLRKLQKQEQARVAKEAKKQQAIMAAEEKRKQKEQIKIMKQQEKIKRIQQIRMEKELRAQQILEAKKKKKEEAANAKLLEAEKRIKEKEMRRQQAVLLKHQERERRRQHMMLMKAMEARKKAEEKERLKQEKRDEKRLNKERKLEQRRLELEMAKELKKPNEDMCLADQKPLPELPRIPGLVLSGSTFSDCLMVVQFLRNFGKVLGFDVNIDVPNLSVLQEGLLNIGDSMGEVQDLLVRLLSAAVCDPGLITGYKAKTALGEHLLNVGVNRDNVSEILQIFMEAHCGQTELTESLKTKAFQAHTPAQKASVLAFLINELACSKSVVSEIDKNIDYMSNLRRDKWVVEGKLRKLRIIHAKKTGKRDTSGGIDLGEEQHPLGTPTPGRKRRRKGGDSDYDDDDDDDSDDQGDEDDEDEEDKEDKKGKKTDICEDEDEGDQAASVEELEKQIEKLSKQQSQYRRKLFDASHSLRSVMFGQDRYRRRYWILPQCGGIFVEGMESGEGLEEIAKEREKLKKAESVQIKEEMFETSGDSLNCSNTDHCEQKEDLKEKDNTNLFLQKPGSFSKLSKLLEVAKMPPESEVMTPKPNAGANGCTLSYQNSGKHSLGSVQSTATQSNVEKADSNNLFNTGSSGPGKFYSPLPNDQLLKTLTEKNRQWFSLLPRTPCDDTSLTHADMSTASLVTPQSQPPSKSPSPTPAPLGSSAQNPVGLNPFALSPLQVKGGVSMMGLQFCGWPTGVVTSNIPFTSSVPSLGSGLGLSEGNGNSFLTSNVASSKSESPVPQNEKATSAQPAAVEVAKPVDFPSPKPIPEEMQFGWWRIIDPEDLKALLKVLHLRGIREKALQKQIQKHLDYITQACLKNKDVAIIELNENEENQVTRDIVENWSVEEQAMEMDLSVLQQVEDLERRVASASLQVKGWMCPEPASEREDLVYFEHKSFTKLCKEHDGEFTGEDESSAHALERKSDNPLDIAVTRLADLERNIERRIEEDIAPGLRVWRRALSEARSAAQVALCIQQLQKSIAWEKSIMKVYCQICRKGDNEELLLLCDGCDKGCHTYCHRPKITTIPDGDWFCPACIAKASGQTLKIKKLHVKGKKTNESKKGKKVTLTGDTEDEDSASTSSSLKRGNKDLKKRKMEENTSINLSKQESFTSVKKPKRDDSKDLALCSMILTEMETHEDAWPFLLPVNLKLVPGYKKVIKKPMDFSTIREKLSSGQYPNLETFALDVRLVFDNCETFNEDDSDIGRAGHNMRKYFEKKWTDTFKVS
row,SMILES,Potency
1,CC[C@@H]1CC=C[C@H]2[C@H]1C(=O)N(Cc1ccccc1)[C@H]2c1ccc(OC)c(Cl)c1,inactive
2,Cc1c(C(=O)N(Cc2ccc(N(C)C)cc2)CC2CCCO2)oc2ccccc12 (stereo not drawn),active: 22.4 µM and active: 11.2 µM
3,CCn1c(/C=C/N(C(C)=O)c2ccccc2)[n+](CC)c2ccc(Cl)cc21,"inconclusive: 89.1 µM [inhibitor, single point]"
4,COc1ccc(S(=O)(=O)N(C(=O)C(C)C)c2ccc3oc(=O)sc3c2)cc1,"inconclusive: 79.4 µM [inhibitor, single point]"
5,CC(C)CN(C(=O)COC(=O)CCc1c[nH]c2ccccc12)C1CCS(=O)(=O)C1 (stereo not drawn),"inconclusive: 89.1 µM [inhibitor, single point]"
6,COc1cc(/C=N/N(c2ccccc2)c2ccccc2)ccc1O,active: 44.7 µM
7,CC(C)(C)c1ccc(S(=O)(=O)NCC(=O)Nc2sc3c(c2C(N)=O)CCCC3)cc1,inactive
8,O=C(O)CCC(=O)Nc1ccc(N2CCCCCC2)cc1,"inconclusive: 89.1 µM [inhibitor, single point]"
9,COc1ccc(CCNC(=S)Nc2cccc3ccccc23)cc1,"inconclusive: 39.8 µM [inhibitor, partial curve]"
10,CN(C)c1ccc(S(=O)(=O)NCC(=O)OCC(=O)Nc2cccc(Cl)c2)cc1[N+](=O)[O-],"inconclusive: 35.5 µM [inhibitor, partial curve]"
11,Cc1ccc(NC(=S)NNC(=O)c2cccc([N+](=O)[O-])c2)cc1Cl,"inconclusive: 44.7 µM [inhibitor, partial curve]"
12,S=c1[nH]nc(-c2ccc(Br)cc2)n1Cc1ccco1,"inconclusive: 70.8 µM [inhibitor, single point]"
13,Cc1cccc(C)c1NC(=O)Cn1c(=O)n(Cc2ccc(C(=O)NCc3ccco3)cc2)c(=O)c2sccc21,"inconclusive: 89.1 µM [inhibitor, single point]"
14,CC(=O)Nc1ccc(CN2CCCN(C)CC2)cc1,"inconclusive: 35.5 µM [inhibitor, single point]"
15,S=C(NCCc1ccccc1)Nc1ccc(Nc2ccccc2)cc1,active: 8.91 µM
16,c1ccc(-c2cc(-c3nnc4sc(-c5ccccn5)nn34)[nH]n2)cc1,inactive
17,COc1cc(C#Cc2c(-c3cncn3C)n(C)c3ccc(-c4ccc(OC)c(OC)c4)cc23)cc(OC)c1,"inconclusive: 50.1 µM [inhibitor, partial curve]"
18,O=C(Nc1ccc(-c2nc3ccccc3s2)cc1)c1cc(-n2cnnc2)ccc1Cl,"inconclusive: 89.1 µM [inhibitor, single point]"
